Laboratory results: the BET-seq Pho4 binding data (Le et al. 2018)
The other results are listed elsewhere or left out. The energies were worked out here from pooled read counts, against the library average; single values are noisy.

biological target: T1, Pho4 (S. cerevisiae) (UniProt P07270); assay: relative binding free energy (BET-seq); higher = weaker binding; conditions: reference: library average
T1 sequence: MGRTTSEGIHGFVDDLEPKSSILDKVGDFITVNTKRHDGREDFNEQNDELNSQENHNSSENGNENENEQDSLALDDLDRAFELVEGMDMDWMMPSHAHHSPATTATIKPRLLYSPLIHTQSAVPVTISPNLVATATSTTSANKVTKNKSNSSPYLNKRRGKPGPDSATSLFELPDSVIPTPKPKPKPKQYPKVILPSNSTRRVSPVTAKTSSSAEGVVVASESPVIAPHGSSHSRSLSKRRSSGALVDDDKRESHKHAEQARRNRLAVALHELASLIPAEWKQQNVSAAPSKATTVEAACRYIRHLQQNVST

| Sequence | relative binding free energy [kcal/mol] |
| --- | --- |
| GTTGACACGTGTTATG | 0.12 |
| TGTGACACGTGTTGGT | 0.07 |
| TTGGACACGTGCTTAT | -0.02 |
| GTAGTCACGTGGGACT | -0.02 |
| GTGTGCACGTGCTGAT | 0.04 |
| CTTGTCACGTGGATGG | 0 |
| GGGTGCACGTGTTTGC | 0.05 |
| GGTTTCACGTGGATGA | 0.32 |
| TGCGTCACGTGCTGGT | -0.08 |
| ATTGACACGTGTGGGG | 0.07 |
| ATTGACACGTGAGAGG | 0.16 |
| GGTTACACGTGGTGTG | 0.2 |
| GGTAACACGTGGGTTA | -0.11 |
| AGTGGCACGTGCAAAG | -0.06 |
| TATTTCACGTGATTTG | 0.45 |
| GGTGACACGTGCGGAT | 0 |
| CTGTTCACGTGTGTCT | 0.11 |
| TTCGTCACGTGTGGGT | 0.03 |
| TAGTTCACGTGGGTTT | 0.2 |
| GAGGACACGTGTTTAT | 0.12 |
| AGGAACACGTGTATTT | 0.03 |

| Sequence | relative binding free energy [kcal/mol] |
| --- | --- |
| AAGAGCACGTGCGTGG | -0.19 |
| TATTTCACGTGATTAA | 0.42 |
| GTAGTCACGTGTCGGC | 0.25 |
| AGTGCCACGTGAGCGT | 0.01 |
| TGAGGCACGTGTAATG | 0.05 |
| TGTTGCACGTGAAGTC | 0.32 |
| CAGGGCACGTGTAGGG | -0.13 |
| TCAATCACGTGTAGTT | 0.12 |
| TGAAACACGTGTAGGG | 0.04 |
| GAAAACACGTGGTGTT | 0.02 |
| TTGTTCACGTGACGAT | 0.36 |
| GATCACACGTGGGTGG | -0.09 |
| TGTAGCACGTGCGTTA | -0.08 |
| TCGTTCACGTGCTGTA | 0.24 |
| CGATTCACGTGCGGTG | 0.21 |
| CTCATCACGTGGGGGG | -0.08 |
| TGAATCACGTGAAGTA | 0.3 |
| GAGGCCACGTGTGAGG | 0.15 |
| TATTACACGTGTAAAT | 0.09 |
| TCAATCACGTGGTTGG | 0.07 |
| ATGCTCACGTGAGGGC | 0.38 |

| Sequence | relative binding free energy [kcal/mol] |
| --- | --- |
| GGATGCACGTGTTATG | -0.05 |
| GGGGGCACGTGTGATC | -0.07 |
| GGGTTCACGTGGGAGG | 0.37 |
| GAGGGCACGTGGCCGT | -0.25 |
| AATGACACGTGAATTT | 0.39 |
| GCAAGCACGTGGCGGG | -0.02 |
| CGTTGCACGTGAGATT | 0.26 |
| AGATTCACGTGAAGTA | 0.5 |
| ATTTACACGTGGGCGG | -0.06 |
| ATAGACACGTGTAGTT | 0.15 |
| TATTTCACGTGAGGCT | 0.24 |
| CTCGTCACGTGGGTTT | -0.12 |
| CGTTTCACGTGAAAGT | 0.4 |
| CTGTTCACGTGTACGT | 0.22 |
| GAGTGCACGTGGTCTG | -0.13 |
| TATATCACGTGGTTCG | 0.14 |
| TAAACCACGTGGGGGG | -0.11 |
| TTTGGCACGTGTTGCA | -0.07 |
| TTTATCACGTGGAACT | 0.18 |
| TGAGTCACGTGGAGCG | 0.21 |
| TTGTACACGTGCTTCG | 0.08 |
